# Assay results taken from the antibiotic and cytotoxicity screens of Wong et al. (2023).
# Some of the results follow.
# How the values were obtained:
# [1] = test system: HSkMC (human skeletal muscle cells); assay: cytotoxicity call (relative viability < 0.9); settings: 10 µM
# [2] = test system: HepG2; assay: cytotoxicity call (relative viability < 0.9); settings: 10 µM
# [3] = test system: S. aureus RN4220; assay: growth inhibition call (relative growth <= 0.2); settings: 50 µM
Structure (SMILES),cytotoxicity call [1],cytotoxicity call [2],growth inhibition call [3]
CC(C)(C)[S@](=O)N1Cc2cc(C(=O)N3CCCCC3)nc(-c3cccc(-c4ccc(C#N)cc4)c3)c2[C@@H]1CCO,inactive,inactive,inactive
C[C@H]1CN([C@@H](C)CO)C(=O)c2cccc(NC(=O)C3CC3)c2O[C@H]1CN(C)S(=O)(=O)c1ccccc1,inactive,inactive,inactive
C=CCNC(=O)[C@@H]1[C@H]2C(=O)O[C@H](c3ccccc3)[C@H](c3ccccc3)N2[C@H](c2ccc(OCCO)cc2)[C@@]12C(=O)Nc1ccc(C#Cc3ccc(OC)cc3)cc12,inactive,inactive,inactive
C[C@@H]1CN([C@@H](C)CO)C(=O)c2cccc(NS(=O)(=O)c3ccccc3)c2O[C@@H]1CN(C)S(=O)(=O)c1cccs1,inactive,inactive,inactive
COc1ccc(S(=O)(=O)Nc2cccc3c2O[C@H](CN(C)Cc2ccncc2)[C@@H](C)CN([C@@H](C)CO)C3=O)cc1,inactive,inactive,inactive
O=C(CN1C(=O)c2ccccc2C1=O)N1CCNCC1,inactive,inactive,inactive
COc1ccc(NC(=O)N(C)C[C@@H]2Oc3c(NC(=O)C4CC4)cccc3C(=O)N([C@H](C)CO)C[C@@H]2C)cc1,inactive,inactive,inactive
C[C@@H]1CCCCO[C@@H](CN(C)Cc2ccc(C(F)(F)F)cc2)[C@H](C)CN([C@@H](C)CO)C(=O)c2cc(NC(=O)CCC(F)(F)F)ccc2O1,inactive,active,inactive
CCCNC(=O)N1C[C@H](O)COC[C@H]2O[C@H](CC(=O)N3CCN(C)CC3)CC[C@@H]21,inactive,inactive,inactive
[N-]=[N+]=Nc1ccccc1C[C@]1(C(=O)N2CCCCC2)N=C(c2ccc(OCCCO)cc2)O[C@H]1c1ccccc1,inactive,active,inactive
CN1C(=O)c2cc(NC(=O)c3ccc(F)cc3)ccc2OC[C@@H]2O[C@H](CC(=O)N3CCOCC3)CC[C@H]21,inactive,inactive,inactive
C[C@H](CO)N1C[C@H](C)[C@@H](CN(C)C(=O)c2ccncc2)Oc2cc(C#Cc3ccncc3)ccc2S1(=O)=O,inactive,active,inactive
Cc1ccc(S(=O)(=O)N(C)C[C@H]2Oc3ccc(NS(=O)(=O)c4ccc(F)cc4)cc3C(=O)N([C@H](C)CO)C[C@@H]2C)cc1,inactive,inactive,inactive
COc1ccc(NC(=O)Nc2ccc3c(c2)C(=O)N([C@@H](C)CO)C[C@H](C)[C@@H](CN(C)Cc2ccc(C(F)(F)F)cc2)OCCCC[C@@H](C)O3)cc1,inactive,active,inactive
C[C@H](CO)N1C[C@H](C)[C@@H](CN(C)S(=O)(=O)c2ccc(Cl)cc2)Oc2ccc(NC(=O)Nc3cccc4ccccc34)cc2CC1=O,inactive,inactive,inactive
Cc1noc(C)c1NC(=O)Nc1ccc2c(c1)C(=O)N([C@H](C)CO)C[C@H](C)[C@@H](CN(C)C(=O)C1CCCCC1)OCCCC[C@@H](C)O2,inactive,inactive,inactive
C[C@H](CO)N1C[C@H](C)[C@@H](CN(C)C(=O)CCC(F)(F)F)OCCCC[C@H](C)Oc2ccc(NS(=O)(=O)c3ccc(Cl)cc3)cc2C1=O,inactive,inactive,inactive
C[C@H]1CN([C@@H](C)CO)C(=O)c2cc(Br)cnc2O[C@@H]1CN(C)S(C)(=O)=O,inactive,inactive,inactive
CC(C)NC(=O)N(C)C[C@@H]1Oc2cc(C#Cc3ccc(F)cc3)ccc2S(=O)(=O)N([C@H](C)CO)C[C@H]1C,inactive,inactive,inactive
NCC[C@@H]1CC[C@@H](NC(=O)Cc2ccncc2)[C@H](CO)O1,inactive,inactive,inactive
C[C@@H]1CCCCO[C@@H](CN(C)C(=O)Nc2ccccc2)[C@@H](C)CN([C@H](C)CO)C(=O)c2cc(NC(=O)NC3CCCCC3)ccc2O1,inactive,inactive,inactive
Cc1ccc(S(=O)(=O)Nc2ccc3c(c2)C(=O)N([C@@H](C)CO)C[C@@H](C)[C@H](CN(C)Cc2ccc4c(c2)OCO4)OCCCC[C@H](C)O3)cc1,inactive,inactive,inactive
CCCN(C)C[C@H]1OCCCC[C@@H](C)Oc2ccc(NS(=O)(=O)c3cn(C)cn3)cc2C(=O)N([C@H](C)CO)C[C@@H]1C,inactive,inactive,inactive
C[C@H](CO)N1C[C@H](C)[C@@H](CN(C)Cc2ccc(Oc3ccccc3)cc2)Oc2c(NS(=O)(=O)c3ccc(Cl)cc3)cccc2C1=O,inactive,inactive,inactive
NCc1ccc(Br)s1,inactive,inactive,inactive
Cc1noc(C)c1NC(=O)N(C)C[C@H]1OCCCC[C@@H](C)Oc2ccc(NC(=O)CCC(F)(F)F)cc2C(=O)N([C@@H](C)CO)C[C@@H]1C,inactive,inactive,inactive
COc1ccc(CN(C)C[C@H]2OCCCC[C@@H](C)Oc3ccc(NC(=O)c4ccncc4)cc3C(=O)N([C@@H](C)CO)C[C@H]2C)cc1,inactive,inactive,inactive

Structure (SMILES),cytotoxicity call [1],cytotoxicity call [2],growth inhibition call [3]
O=C(C[C@@H]1CC[C@@H](NC(=O)CN2CCOCC2)[C@@H](CO)O1)NCCc1ccccc1,inactive,inactive,inactive
CNC(=O)C[C@H]1CC[C@H]2[C@@H](COC[C@H](O)CN2C(=O)Nc2cccc(OC)c2)O1,inactive,inactive,inactive
C[C@H](CO)N1C[C@H](C)[C@H](CN(C)CC2CCCCC2)OCCCC[C@H](C)Oc2ccc(NS(=O)(=O)c3ccccc3)cc2C1=O,inactive,inactive,inactive
C[C@@H]1CN([C@H](C)CO)C(=O)c2cc(NS(=O)(=O)c3ccccc3)ccc2O[C@@H]1CN(C)S(=O)(=O)c1ccccc1,inactive,inactive,inactive
COc1cccc(S(=O)(=O)Nc2ccc3c(c2)[C@@H]2C[C@H](CC(=O)NCc4cccc(F)c4)O[C@@H](CO)[C@@H]2O3)c1,inactive,inactive,inactive
COC[C@H]1CN(C(=O)CS(C)(=O)=O)Cc2nnn(CC3CC3)c21,inactive,inactive,inactive
COc1ccc(NC(=O)N(C)C[C@@H]2OCCCC[C@H](C)Oc3ccc(NC(=O)Nc4ccc(C(F)(F)F)cc4)cc3C(=O)N([C@@H](C)CO)C[C@H]2C)cc1,inactive,inactive,inactive
C[C@H](CO)N1C[C@H](C)[C@@H](CN(C)Cc2ccccc2)OCCCC[C@H](C)Oc2ccc(NC(=O)NC3CCCCC3)cc2C1=O,inactive,inactive,inactive
C[C@@H]1CN([C@H](C)CO)C(=O)CCCn2nncc2CO[C@@H]1CN(C)S(C)(=O)=O,inactive,inactive,inactive
C[C@@H]1CN([C@@H](C)CO)C(=O)Cc2cc(NS(C)(=O)=O)ccc2O[C@H]1CN(C)C(=O)Nc1ccc(C(F)(F)F)cc1,inactive,inactive,inactive
C[C@@H]1CCCn2nncc2COCCNC1=O,inactive,inactive,inactive
C[C@H]1CN([C@@H](C)CO)C(=O)c2cc(NS(=O)(=O)c3cccs3)ccc2O[C@H]1CN(C)CC1CC1,inactive,inactive,inactive
O=c1ccn([C@@H]2O[C@H](CO)[C@@H](O)[C@H]2O)c(=O)[nH]1,inactive,inactive,inactive
C[C@@H]1CN([C@H](C)CO)C(=O)c2cc(C#CC3CCCCC3)cnc2O[C@@H]1CN(C)C(=O)c1ccncc1,inactive,inactive,inactive
C=CCCC(=O)N(C)[C@H](C)[C@H](OC(=O)[C@@H]1[C@@H]2C=C[C@]3(O2)[C@H](C(=O)N(CC=C)Cc2ccccc2)N(C(C)(C)C)C(=O)[C@@H]13)c1ccccc1,inactive,inactive,inactive
COC(=O)c1cc(=O)n2ccccc2c1C#N,inactive,inactive,inactive
C[C@@H]1CN([C@H](C)CO)C(=O)c2cc(C#CCN(C)C)cnc2O[C@@H]1CN(C)Cc1ccc2c(c1)OCO2,inactive,inactive,inactive
O=C(CCCCCCC(=O)Nc1ccc([C@H]2O[C@@H](COc3ccccc3)C[C@H](c3ccccc3)O2)cc1)NO,inactive,inactive,inactive
O=C(CN1CCOCC1)N[C@@H]1CC[C@@H](CCNC(=O)Nc2cc(F)ccc2F)O[C@@H]1CO,inactive,inactive,inactive
C[C@@H]1CCCCO[C@@H](CN(C)S(=O)(=O)c2ccccc2)[C@H](C)CN([C@@H](C)CO)C(=O)c2cc(NC(=O)c3ccccc3)ccc2O1,inactive,inactive,inactive
CC(C)NC(=O)Nc1ccc2c(c1)C(=O)N([C@@H](C)CO)C[C@@H](C)[C@H](CN(C)C(=O)Nc1cccc3ccccc13)OCCCC[C@H](C)O2,inactive,inactive,inactive
Cc1noc(C)c1S(=O)(=O)N(C)C[C@H]1Oc2ccc(NC(=O)Nc3ccc4c(c3)OCO4)cc2CC(=O)N([C@@H](C)CO)C[C@H]1C,inactive,inactive,inactive
C[C@@H]1CCCCO[C@@H](CN(C)Cc2ccc3c(c2)OCO3)[C@@H](C)CN([C@H](C)CO)C(=O)c2cc(NS(=O)(=O)c3ccc(F)cc3)ccc2O1,inactive,active,inactive
CCOC(=O)[C@H]1C/C=C/C[C@H](C(=O)OCC)C(=O)O[C@H]2[C@@H](OC)O[C@H](CO)[C@@H](OC(=O)Nc3ccc4c(c3)OCO4)[C@@H]2OC1=O,active,active,inactive
C[C@@H]1CN([C@@H](C)CO)C(=O)c2cc(NC(=O)CCN3CCOCC3)ccc2O[C@@H]1CN(C)S(=O)(=O)c1cn(C)cn1,inactive,inactive,inactive
CC(C)[C@@H](CO)N1C(=O)[C@@H]2[C@H]3C(=O)OCC=C[C@H]3O[C@]23C=CCN(c2ccc4ccccc4c2)C(=O)[C@@H]13,inactive,inactive,inactive
COC(=O)c1nc[nH]c1C(=O)OC,inactive,inactive,inactive
